Data reported in PubChem BioAssay AID1345082 (National Center for Advancing Translational Sciences (NCATS), 2018).
The campaign covered roughly 94,000 compounds. About 4,000 (4.3%) were called active. This list was built around the results that the source calls inconclusive (neither active nor inactive); the mix of calls is not that of the screen. The call rests on the fitted dose curve; in most records, active means well fitted inhibition curve with a large enough effect; inconclusive means small, poorly fitted or top-dose-only effect; inactive means no such curve, though single readings can be large or run the other way. A potency beside an inconclusive call is a rough fit, not a confirmed value.

Assay: Cytotoxic Profiling in NIH 3T3 Cell Line of Diverse Libraries Using Quantitative High-Throughput Screening; further: nearly all actives have a fitted effect of over 55% in size
Conditions: NIH 3T3 viability, CellTiter-Glo ATP luminescence, 48-72 h; activity change, negative = cytotoxicity: at 96.7 µM (top of the series) unless noted; series mostly up to 96.7 µM
How it was run: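 First NIH 3T3 cells are plated at 400 cells/well; next compound is pinned in; then plates incubate 48 or 72 hr at 37 °C; finally CellTiter-Glo is added and luminescence read after 10 min.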
On the % scale 0 is the no-effect control and ±100 the full control effect; potency means the concentration at half of the fitted maximal effect; tags describe the fitted curve by direction and shape.

SMILES | activity change, negative = cytotoxicity | Potency | outcome
COc1cccc(CC(=O)N2CCC3(CCC3OC)CC2)c1 (configuration not stated) | inactive: -19.2% |  | 
CC(=O)N1CCN(C(=O)C2CCCN(Cc3cccc(-c4ccc(F)cc4F)c3)C2)CC1 (configuration not stated) | inactive: -26.9% |  | 
CC1=NOC2(CCN(Cc3ccc(F)cc3)CC2)C1 |  | inconclusive: 100 µM [inhibitor, single point] | 
CCc1noc(-c2cn(C3CCN(C(=O)c4cccn4C)CC3)nn2)n1 | inactive: -12% |  | 
O=C(c1cnc2c(c1)N([S+](=O)([O-])c1cccnc1)CCC2)N1CCC[C@@H]1c1ccc(F)cc1 |  | inconclusive: 28.2 µM [inhibitor, full curve, poor fit] | 
CCC1CN(Cc2cn(Cc3ccccc3)nc2-c2cc3ccccc3o2)CCO1 (configuration not stated) |  | inconclusive: 56.2 µM [inhibitor, partial curve, poor fit] | 
O=C1[C@@H]2C[C@@H](O)CN2C2(CN(C3CCCCC3)C2)C(=O)N1Cc1ccccc1Cl | inactive: -16.3% [at 174 µM] |  | 
O=C(c1nccnc1C(=O)N1CCC2(CCCNC2)C1)N1CCCCC1 (configuration not stated) | inactive: -4.03% |  | 
COC(=O)C1=C(C)N=C2SC=C(CC(=O)N3CCCC3)N2C1c1ccc(OC)cc1 (configuration not stated) | inactive: -5.2% |  | 
CNC(=O)N1CCC(C2CCN(C(=O)c3ccc(Cl)s3)C2)CC1 (configuration not stated) | inactive: -2.31% |  | 
CC1(C)[C@H](Cc2cc(CC3CCCCC3)on2)C[C@@H]1NC1CCOCC1 |  | active: 31.6 µM | 
COc1ccccc1CNC(=O)c1cc2c(N3CCSCC3)nc(C)cn2n1 |  | inconclusive: 39.8 µM [inhibitor, partial curve] | 
CCCC(=O)NC[C@@H]1CC[C@H]2C[C@@H]1C2(C)C |  | inconclusive: 79.4 µM [inhibitor, partial curve, poor fit] | 
OCCC1CN(c2cc(C(F)(F)F)ccn2)CCN1CC1CCCCC1 (configuration not stated) |  | inconclusive: 50.1 µM [inhibitor, partial curve, poor fit] | 
CN(C)C(=O)c1cc(-c2ccc(Cl)nc2)nc2c1cnn2C |  | inconclusive: 79.4 µM [inhibitor, single point] | 
CCOC(=O)[C@H]1[C@@H](O)C(=O)N(Cc2ccccc2)C12CCN(C(=O)C1CCC1)CC2 |  | inconclusive: 70.8 µM [inhibitor, partial curve, poor fit] | 
O=[S+]1([O-])NC2(CCN(Cc3cccc(C(F)(F)F)c3)C2)COc2ncccc21 (configuration not stated) | inactive: -12.8% |  | 
CCN(CCNc1ncncn1)c1cccc(C)c1 |  | inconclusive: 44.7 µM [inhibitor, partial curve] | 
COc1ccc(-c2ccc3onc(C)c3n2)cc1OC |  | active: 39.8 µM | 
Cc1noc([C@@H]2CN(C(=O)c3ocnc3C)C[C@H]2COCC2CC2)n1 | inactive: -2.97% |  | 
O=C1NC2(CCN(C(=O)c3ccc(Cl)cc3)CC2)COc2ccccc21 | inactive: -4.52% |  | 
Cc1cc(CNC(=O)c2cc(-c3ccco3)nc3c(Cl)cccc23)no1 |  | inconclusive: 10 µM [inhibitor, full curve, poor fit] | 
Cc1nc(CN2C[C@H](C(=O)Nc3ccccc3)C[C@@H]2c2ccc(F)cc2)cs1 |  | inconclusive: 56.2 µM [inhibitor, partial curve, poor fit] | 

SMILES | activity change, negative = cytotoxicity | Potency | outcome
COc1cc(CNC(=O)[C@H]2CCC[C@H]2NC(=O)c2ccc(OC)nc2)cc(OC)c1 | inactive: -22.9% |  | 
Cc1nc(CCC(=O)NCc2cc(Cl)cc3c(C)c(-c4ccccc4)[nH]c23)n[nH]1 |  | inconclusive: 79.4 µM [inhibitor, partial curve] | 
CCCCN1CCN(C(=O)CCc2cc3ccc(C)cc3[nH]c2=O)CC1 | inactive: -10.8% |  | 
O=C(O)c1cc(-c2ccc3c(c2)OCCO3)cc(S(=O)(=O)N2CCOCC2)c1 |  | inconclusive: 89.1 µM [inhibitor, single point] | 
Cc1ccc(C(=O)N2CCN(C(=O)c3nc4cccnc4n(C4CCCC4)c3=O)CC2)cc1 | inactive: 0.83% |  | 
COc1ccccc1-c1cnc(NC(=O)c2ccc(F)c(Cl)c2)c2c1CCO2 |  | inconclusive: 20 µM [inhibitor, full curve, poor fit] | 
Cc1ccc(NC(=O)c2cnc(-c3ccccc3)nc2-c2ccncc2)c(Br)c1 |  |  | inactive
CCn1nc(C)c(CCC(=O)NC2CCCc3c2[nH]c2ccccc32)c1C (configuration not stated) |  | inconclusive: 44.7 µM [inhibitor, partial curve, poor fit] | 
CC(C)c1nc2c(c(-c3ccc(O)cc3)n1)CN(C(=O)C1CCCC1)CC2 |  | inconclusive: 50.1 µM [inhibitor, partial curve, poor fit] | 
COc1ccc(-c2nc(-c3ccccc3)nc3c2CN(C(=O)Cc2ccccn2)CC3)cc1 |  | inconclusive: 50.1 µM [inhibitor, partial curve, poor fit] | 
Cc1cc(C)n(-c2ccc(NC(=O)C3CCN(Cc4nnc(C)o4)CC3)cc2)n1 |  | inconclusive: 79.4 µM [inhibitor, partial curve, poor fit] | 
COc1ccc(Cl)cc1-c1ncc2c(n1)OCCN(Cc1ccc(F)cc1F)C2=O |  | inconclusive: 100 µM [inhibitor, partial curve, poor fit] | 
Cc1nonc1CC(=O)N1CCCC(CNS(=O)(=O)c2cccs2)C1 (configuration not stated) | inactive: -2.99% |  | 
CCOc1ccc(C(=O)N2C[C@@H](CO)[C@H](c3ccncc3)C2)cc1 | inactive: -12.1% |  | 
CC(C)C(=O)Nc1ccc(C2(C(=O)NCc3ccc(F)c(Cl)c3)CCC2)cc1 |  | active: 35.5 µM | 
CCCn1cc2c3c(cccc31)CN(C(=O)c1cccc(F)c1)CC2 |  | inconclusive: 44.7 µM [inhibitor, partial curve, poor fit] | 
COCCN1CCNc2nc(COc3ccc(Oc4ccccc4)cc3)n(Cc3ccccc3)c2C1=O |  | active: 44.7 µM | 
O=C1CC2(CCN(C(=O)C3CCN([S+](=O)([O-])c4cccs4)CC3)CC2)Oc2ccccc2N1 |  | inconclusive: 44.7 µM [inhibitor, partial curve] | 
COc1ccc(OC)c(S(=O)(=O)N2CCCCCCNC(=O)[C@@H]3CCCC[C@@H]32)c1 | inactive: -24% |  | 
Cc1ccc(CN2CCCCCNC(=O)[C@H]3C[C@H](C(=O)N4CCc5ccccc5C4)C[C@H]32)o1 |  | inconclusive: 50.1 µM [inhibitor, partial curve, poor fit] | 
CCCN(CC1CC1)C(=O)c1c(OCC2CC2)cc(=O)n2c1CCCCC2 |  | inconclusive: 50.1 µM [inhibitor, partial curve, poor fit] | 
CNC[C@@]12CN(Cc3ccccc3)C[C@@H]1C(C)(C)COc1ccc(OC)cc12 |  | inconclusive: 50.1 µM [inhibitor, partial curve, poor fit] | 
CCc1nnc(CNC(=O)c2cn(CCN3CCNCC3)nn2)s1 |  |  | inactive

SMILES | activity change, negative = cytotoxicity | Potency | outcome
CN(C)CC(O)c1cc2n(n1)CCCN(C(=O)c1cccn1C1CC1)C2 (configuration not stated) | inactive: -3.58% |  | 
CC[C@H]1CN(C(=O)c2ccnc(Cl)c2)CC[C@H]1CC(=O)NCc1cccnc1 | inactive: -10.3% [at 174 µM] |  | 
O=C(COc1ccccc1)N1CC2(C1)CN(Cc1ccc(Cl)cc1)C(=O)O2 |  | inconclusive: 89.1 µM [inhibitor, partial curve] | 
O=C1Nc2ccc(-c3cccc(C(F)(F)F)c3)cc2C(=O)N2CCN(C(=O)COc3ccccc3)C[C@H]12 |  | inconclusive: 79.4 µM [inhibitor, single point] | 
COCc1cc(C[C@@H]2C[C@H](NC(=O)c3ccnc(Cl)c3)C2(C)C)no1 |  | inconclusive: 112 µM [inhibitor, partial curve, poor fit] | 
O=C(Cc1ccccc1)NCC1CN(C(=O)C2CCOCC2)CC12CN(c1ccccc1)C2 (configuration not stated) |  | inconclusive: 70.8 µM [inhibitor, single point] | 
COc1ccc(NC(=O)O[C@@H]2CO[C@H]3[C@@H]2OC[C@@H]3NS(=O)(=O)c2ccccc2C#N)cc1 | inactive: -18.1% |  | 
CCCNC(=O)N1CCOC[C@H](Oc2ccc(C(F)(F)F)cn2)C1 |  | inconclusive: 2 µM [inhibitor, partial curve, poor fit] | 
COc1ccc(NC(=O)Cn2nc3c(cc2=O)CN(C(C)=O)CC3)cc1Cl | inactive: -1.32% |  | 
Cc1ccc(CCN2C[C@]34C=C[C@H](O3)C(C(=O)N(C)Cc3nccn3C)C4C2=O)cc1 (some centres not stated) | inactive: 1.63% |  | 
CN1C(=O)N(C)C2(CCN(CCOc3ccc(F)cc3)C2)C1=O (configuration not stated) | inactive: 0.879% |  | 
CC(C)c1nc(NCc2ccccc2Cn2cccn2)c2cnn(C)c2n1 |  | inconclusive: 39.8 µM [inhibitor, partial curve] | 
CC(C)CCN1CC2(CCCN(C(=O)c3cc(C(F)(F)F)[nH]n3)C2)CCC1=O (configuration not stated) |  | active: 44.7 µM | 
COc1ccc(-c2nc(C3CC3)nc3c2CCN(C(=O)c2ccccc2OC)CC3)cc1 | inactive: -37.7% |  | 
O=C(NCCCc1ccccc1)C1CCCN(Cc2cccc(-c3cccs3)c2)C1 (configuration not stated) |  | inconclusive: 44.7 µM [inhibitor, partial curve, poor fit] | 
COc1ccc(C(=O)NC2CCCN(Cc3cccc(-c4ccc(C)c(Cl)c4)c3)C2)cc1 (configuration not stated) |  | inconclusive: 7.08 µM [inhibitor, partial curve, poor fit] | 
O=C(NCC1CCCO1)c1cc(-c2ccccc2F)cc2c1OCCN2Cc1cccnc1 (configuration not stated) |  | inconclusive: 50.1 µM [inhibitor, partial curve, poor fit] | 
O=C(CCC1CCCC1)N1CC(c2nnc(-c3ccncc3)o2)C2(CCOCC2)C1 (configuration not stated) | inactive: -38.9% |  | 
O=C(NC1CCCCC1)[C@@H]1C[C@@H](O)CN1C1CCN(C(=O)c2ccc3c(c2)OCO3)CC1 | inactive: -1.56% |  | 
O=C(C1CCCC1)N1CC2(CCCN(CC3CCCCC3)C2)Cc2ccccc21 (configuration not stated) |  | inconclusive: 70.8 µM [inhibitor, single point] | 
Cc1ccc(NC(=O)N2CCC(CCNC(=O)c3ccco3)CC2)cc1F |  | inconclusive: 44.7 µM [inhibitor, partial curve, poor fit] | 
